According to the antibiotic and cytotoxicity screens of Wong et al. (2023):
Some of the results follow.

The compounds below were run on HSkMC (human skeletal muscle cells) (assay: cytotoxicity call (relative viability < 0.9)). Details: 10 µM.
For C[C@@H]1CCCCO[C@H](CN(C)C(=O)Nc2cccc3ccccc23)[C@@H](C)CN([C@@H](C)CO)C(=O)c2cc(NC(=O)Nc3ccc(F)cc3)ccc2O1, the cytotoxicity call was “inactive”.
Cc1cccc(S(=O)(=O)N2C[C@@H](O)COC[C@H]3O[C@H](CC(=O)NCc4ccncn4)CC[C@@H]32)c1 was tested, and the cytotoxicity call was “inactive”.
With COc1ccc(NC(=O)Nc2ccc3c(c2)C(=O)N([C@@H](C)CO)C[C@@H](C)[C@@H](CN(C)S(=O)(=O)c2ccc(OC)cc2)OCCCC[C@@H](C)O3)cc1 the cytotoxicity call was “inactive”.
COc1ccccc1C#Cc1ccc2c(c1)O[C@@H](CN(C)Cc1ccncc1)[C@H](C)CN([C@H](C)CO)S2(=O)=O was tested, and the cytotoxicity call was “active”.
For CC(C)CC#Cc1ccc2c(c1)O[C@@H](CN(C)S(=O)(=O)c1cccc(F)c1)[C@H](C)CN([C@H](C)CO)S2(=O)=O, the cytotoxicity call was “inactive”.
In the case of C[C@H](CO)N1C[C@H](C)[C@H](CN(C)S(=O)(=O)c2ccc(F)cc2)OCCCC[C@H](C)Oc2ccc(NS(C)(=O)=O)cc2C1=O, the cytotoxicity call is reported as “inactive”.
For C=C(C)COc1ccc([N+](=O)[O-])cc1, the cytotoxicity call was “inactive”.
With COc1ccc(Sc2ccc(N(C(=O)c3ccccc3Cl)C(=O)c3ccccc3Cl)cc2C#N)cc1 the cytotoxicity call was “inactive”.
For C[C@@H]1CN([C@@H](C)CO)C(=O)c2cccc(NS(C)(=O)=O)c2O[C@@H]1CN(C)C(=O)Nc1ccc(C(F)(F)F)cc1, the cytotoxicity call was “inactive”.
O=C(C[C@@H]1C=C[C@@H](NC(=O)c2ccc3c(c2)OCO3)[C@H](CO)O1)NCc1ccc(Oc2ccccc2)cc1 was tested, and the cytotoxicity call was “inactive”.
In the case of C[C@H]1CN([C@@H](C)CO)C(=O)c2cccc(NC(=O)CCCCCC(=O)Nc3ccccc3N)c2O[C@@H]1CN(C)Cc1ccc(Oc2ccccc2)cc1, the cytotoxicity call is reported as “inactive”.
CCOC(=O)[C@H]1[C@@H]2C=C[C@]3(O2)[C@H](C(=O)NCc2ccccc2)N(Cc2cc(OC)cc(OC)c2)C(=O)[C@@H]13 was tested, and the cytotoxicity call was “inactive”.
C[C@@H]1CN([C@H](C)CO)C(=O)c2cc(NS(=O)(=O)c3ccc(Cl)cc3)ccc2O[C@H]1CN(C)S(=O)(=O)c1cn(C)cn1 was tested, and the cytotoxicity call was “inactive”.
In the case of C[C@H](CO)N1C[C@H](C)[C@@H](CN(C)Cc2ccc(Oc3ccccc3)cc2)Oc2c(NC(=O)Cc3ccccc3)cccc2C1=O, the cytotoxicity call is reported as “inactive”.
Cc1cn2c(=O)c(C(=O)O)cnc2s1 was tested, and the cytotoxicity call was “inactive”.
With O=C(C[C@H]1CC[C@H]2[C@@H](COC[C@@H](O)CN2S(=O)(=O)c2cccc(F)c2)O1)NCc1ccncn1 the cytotoxicity call was “inactive”.
With Cc1noc(C)c1NC(=O)N(C)C[C@@H]1Oc2ccc(NS(=O)(=O)c3ccccc3)cc2CC(=O)N([C@H](C)CO)C[C@H]1C the cytotoxicity call was “inactive”.
For Cc1ccc(-c2csc(-c3ccc(C(F)(F)F)cc3)n2)cc1, the cytotoxicity call was “inactive”.
In the case of C[C@H](CO)N1C[C@H](C)[C@H](CN(C)C(=O)c2ccccc2)OCCCC[C@H](C)Oc2ccc(NC(=O)Cc3ccccc3)cc2C1=O, the cytotoxicity call is reported as “inactive”.
In the case of CC(C)NC(=O)N(C)C[C@@H]1Oc2ccc(NC(=O)CCC(F)(F)F)cc2CC(=O)N([C@H](C)CO)C[C@H]1C, the cytotoxicity call is reported as “inactive”.
For Cc1cc(C(=O)Nc2cccc3c2O[C@H](CN(C)C(=O)Nc2ccc4c(c2)OCO4)[C@@H](C)CN([C@H](C)CO)C3=O)n(C)n1, the cytotoxicity call was “inactive”.
With C[C@@H]1CN([C@H](C)CO)C(=O)c2cc(NS(=O)(=O)c3cccs3)ccc2O[C@@H](C)CCCCO[C@@H]1CN(C)Cc1ccc(C(=O)O)cc1 the cytotoxicity call was “inactive”.
COc1cc(N2CCO[C@]3(COCCN(S(C)(=O)=O)C3)C2)ncn1 was tested, and the cytotoxicity call was “inactive”.
In the case of C[C@@H]1CCCCO[C@H](CN(C)C(=O)c2ccccc2)[C@H](C)CN([C@@H](C)CO)C(=O)c2cc(NC(=O)Nc3ccc(C(F)(F)F)cc3)ccc2O1, the cytotoxicity call is reported as “inactive”.
C[C@@H]1CN([C@H](C)CO)C(=O)CCCn2cc(nn2)CO[C@H]1CN(C)C(=O)c1cc(-c2ccccc2)on1 was tested, and the cytotoxicity call was “inactive”.
For C[C@H](CO)N1C[C@H](C)[C@@H](CN(C)C(=O)Nc2ccccc2)OCCCC[C@H](C)Oc2ccc(NS(=O)(=O)c3cccs3)cc2C1=O, the cytotoxicity call was “inactive”.
CCc1cn(C2OCC(O)C2CO)c(=O)nc1O (stereo not given) was tested, and the cytotoxicity call was “inactive”.
With Cc1nnc(SCC2=C(C(=O)[O-])N3C(=O)C(NC(=O)Cn4cnnn4)C3SC2)s1.[Na+] (stereo not given) the cytotoxicity call was “inactive”.
C[C@H](CO)N1C[C@H](C)[C@H](CN(C)S(=O)(=O)c2ccccc2F)Oc2cc(C#Cc3cccc(F)c3)ccc2S1(=O)=O was tested, and the cytotoxicity call was “inactive”.
With Cc1noc(C)c1NC(=O)N(C)C[C@H]1Oc2ccc(NS(C)(=O)=O)cc2CC(=O)N([C@@H](C)CO)C[C@@H]1C the cytotoxicity call was “inactive”.
For C[C@H]1CN([C@@H](C)CO)C(=O)c2cccc(NC(=O)Nc3cccc4ccccc34)c2O[C@H]1CN(C)C(=O)Nc1ccccc1, the cytotoxicity call was “inactive”.
With Cc1ccc(S(=O)(=O)Nc2ccc3c(c2)C(=O)N([C@@H](C)CO)C[C@@H](C)[C@@H](CN(C)Cc2ccc(-c4ccccc4)cc2)O3)cc1 the cytotoxicity call was “inactive”.
In the case of C[C@@H]1CN([C@H](C)CO)C(=O)Cc2cc(NC(=O)Nc3ccc4c(c3)OCO4)ccc2O[C@H]1CN(C)S(C)(=O)=O, the cytotoxicity call is reported as “inactive”.
C=CCOC(=O)O[C@H]1[C@@H](OC)O[C@H](COC(=O)NCCCCCC(=O)NO)[C@H]2OC(=O)[C@@H](Cc3cccc(Br)c3)C/C=C/C[C@H](Cc3ccccc3)C(=O)O[C@H]12 was tested, and the cytotoxicity call was “inactive”.
In the case of NNC(=O)C1[C@H]2CCCC[C@@H]12 (stereo not given in full), the cytotoxicity call is reported as “inactive”.
N#C[C@@H]1N[C@H](CO)[C@@H]1c1ccccc1 was tested, and the cytotoxicity call was “inactive”.
In the case of COc1cc2nc(N3CCN(C(=O)c4ccco4)CC3)nc(N)c2cc1OC.Cl, the cytotoxicity call is reported as “inactive”.
In the case of COc1cc2ccccc2cc1C(=O)OCC(=O)N(CC(C)C)c1c(N)n(Cc2ccccc2)c(=O)[nH]c1=O, the cytotoxicity call is reported as “inactive”.
For COc1ccc(CN(C)C[C@@H]2Oc3ccc(NS(=O)(=O)c4c(C)noc4C)cc3CC(=O)N([C@H](C)CO)C[C@H]2C)cc1, the cytotoxicity call was “inactive”.
CNC(=O)C[C@H]1CC[C@H]2[C@@H](COC[C@@H](O)CN2C(=O)Nc2cccc(OC)c2)O1 was tested, and the cytotoxicity call was “inactive”.
